This is one part of the list.
Target: no compound (DMSO)
Assay: log2 fold change of degron read counts, EGFP-low vs EGFP+ sorted cells; higher = lower degron-EGFP level without compound (poor expression or instability)
Settings: compound: DMSO control; 18 h
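Further: jurkat cells carrying a lentiviral library of mutant zinc finger degrons fused to EGFP plus mCherry, mCherry+ cells FACS sorted, degron abundance counted by next-generation sequencing.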

| Sequence | log2 fold change of degron read counts |
| --- | --- |
| FLCEICGRIFTQKGNLLRHIKL | 0.561 |
| FTCEICGAWFTQKGNLLRHIKL | -0.339 |
| FCCNQCGATFTQKGNLLRHIKL | -0.88 |
| FDCNICGAKFTQKGNLLRHIKL | -1.39 |
| FNCPVCGAGFTQKGNLLRHIKL | -0.399 |
| FECPICGHSFTQKGNLLRHIKL | -0.675 |
| FHCNQCGAGFTQKGNLLRHIKL | -0.901 |
| FTCPQCGALFTQKGNLLRHIKL | -1.4 |
| FWCPQCGANFTQKGNLLRHIKL | 0.298 |
| LICNQCGFVCTQKGNLLRHIKL | 0.794 |
| FECEICGHKFTQKGNLLRHIKL | -3.31 |
| FQCNQCGHVFTQKGNLLRHIKL | -0.583 |
| FGCSVCGHGFTQKGNLLRHIKL | 0.655 |
| FICPVCGAQFTQKGNLLRHIKL | -0.213 |
| FYCEQCGATFTQKGNLLRHIKL | -1.75 |
| FGCEICGHRFTQKGNLLRHIKL | -1.41 |

| Sequence | log2 fold change of degron read counts |
| --- | --- |
| FHCNQCGRQFTQKGNLLRHIKL | -0.721 |
| FSCEQCGAHFTQKGNLLRHIKL | -1.65 |
| LYCNQCGFQCTQKGNLLRHIKL | 0.384 |
| FGCNVCGALFTQKGNLLRHIKL | 0.59 |
| FQCNVCGATFTQKGNLLRHIKL | -0.683 |
| FWCEQCGAMFTQKGNLLRHIKL | -0.175 |
| FYCDICGAIFTQKGNLLRHIKL | -0.547 |
| FRCDVCGAYFTQKGNLLRHIKL | -0.32 |
| FLCNQCGRCFTQKGNLLRHIKL | 0.328 |
| FTCEICGHAFTQKGNLLRHIKL | -1.34 |
| FYCDQCGATFTQKGNLLRHIKL | -2.22 |
| FCCPQCGAPFTQKGNLLRHIKL | -1.28 |
| FCCNICGANFTQKGNLLRHIKL | -2.1 |
| FICNICGAHFTQKGNLLRHIKL | -0.573 |
| FLCNQCGRHFTQKGNLLRHIKL | 0.0803 |
| FECPICGRMFTQKGNLLRHIKL | 0.0595 |
